Test results as given in PubChem BioAssay AID485281 (National Center for Advancing Translational Sciences (NCATS), 2010).
The campaign covered roughly 350,000 compounds. About 260 (0.074%) were called active. Inconclusive means that the source gave no clear call. Such entries were picked first, then a sample of the others. Calls follow the shape of the dose curve; as a rule, active = well fitted inhibition curve with a large enough effect; inconclusive = small, poorly fitted or top-dose-only effect; inactive = no such curve, though single readings can be large or run the other way. Potencies beside an inconclusive call are fits to weak or partial responses and may not hold up.

target: Ferritin light chain (Equus caballus) (UniProt P02791); assay: qHTS Assay for Identification of Novel General Anesthetics; details: apoferritin/1-aminoanthracene competitive binding, fluorescence; activity change, negative = displacement: at 77.5 µM (top of the series); also: nearly all actives have a fitted effect of over 20% in size
Sequence of UniProt P02791 (P02791 whole entry, looked up): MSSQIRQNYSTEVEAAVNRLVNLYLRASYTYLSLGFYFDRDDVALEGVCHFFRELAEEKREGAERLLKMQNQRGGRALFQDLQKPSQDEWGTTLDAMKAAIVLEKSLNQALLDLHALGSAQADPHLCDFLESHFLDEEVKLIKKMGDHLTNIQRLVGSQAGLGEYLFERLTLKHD
How it was run: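 Probe: 1-aminoanthracene (50% saturated, PBS). Protein: horse-spleen apoferritin, 10 uM. Incubation: 10 min, room temperature. Detection: 380 nm excitation, 535 nm emission. Analysis: normalized response, four-parameter Hill.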
% is scaled to controls: 0 for no effect and ±100 for the full control effect; potency is read from the fitted curve at half-maximal effect; tags tell the direction and shape of the fitted curve.

Row | Compound | activity change, negative = displacement | Potency
1 | COc1ccc(NC(=O)CSc2nnc(C)c(=O)n2N)cc1 | inactive: -3.38% | 
2 | Cc1ccccc1OCCn1nc(C(=O)O)c2ccccc2c1=O |  | inconclusive: 22.4 µM [inhibitor, partial curve]
3 | Cc1nn(-c2ccccc2)c(Cl)c1/C=N/Nc1ccc(S(=O)(=O)Nc2ccccc2C(=O)O)cc1[N+](=O)[O-] |  | inconclusive: 31.6 µM [inhibitor, partial curve]
4 | CC(C)(C)C(=O)NC(Nc1cccc2cccnc12)C(Cl)(Cl)Cl (stereo unspecified) |  | inconclusive: 22.4 µM [inhibitor, partial curve]
5 | O=C(CSc1nc(C2CC2)nc2ccccc12)Nc1ccccc1N1CCOCC1 |  | inconclusive: 28.2 µM [inhibitor, partial curve]
6 | CC(=O)NCCc1nc2ccccc2n1CCOc1ccccc1C | inactive: -2.43% | 
7 | COc1ccc(NC(=O)CCC(=O)c2ccc(C(C)C)cc2)cc1 |  | inconclusive: 15.8 µM [inhibitor, partial curve]
8 | O=C(Nc1cc(Sc2ccccn2)cc([N+](=O)[O-])c1)c1cccc(Cl)c1 |  | inconclusive: 22.4 µM [inhibitor, partial curve]
9 | CC(C)C[C@H](NC(=O)c1nc[nH]c1C(=O)NCC(=O)OC(C)(C)C)C(=O)OCc1ccccc1 | inactive: -17.5% | 
10 | COc1cc(/C=C2\CC/C(=C\c3cc(OC)c(OC)c(OC)c3)C2=O)cc(OC)c1OC | inactive: 2.84% | 
11 | CCCCCC1CC1C(=O)N/N=C/c1ccc(N(C)C)cc1 (stereo unspecified) |  | inconclusive: 14.1 µM [inhibitor, partial curve]
12 | Cc1c(O)cc2c(c1O)C(=O)CC(c1ccc(O)cc1)O2 (stereo unspecified) |  | inconclusive: 17.8 µM [inhibitor, partial curve]
13 | CCOc1ccc(-c2[nH]ncc2Oc2ccccc2OC)c(O)c1 |  | inconclusive: 14.1 µM [inhibitor, partial curve]
14 | O=C(N/N=C1\CCCc2ccccc21)c1cccc([N+](=O)[O-])c1 |  | inconclusive: 28.2 µM [inhibitor, partial curve]
15 | CCn1c(SCc2nc(-c3ccc(Cl)cc3)no2)nnc1-c1ccco1 |  | inconclusive: 31.6 µM [inhibitor, partial curve]
16 | COc1cc(/C=N/NC(=O)C2=NNC(=O)C2C)ccc1O (stereo unspecified) | inactive: -9.04% | 
17 | Cc1ccccc1NC(=O)C1C2C=CC(C3CC23)C1C(=O)O (stereo unspecified) |  | inconclusive: 17.8 µM [inhibitor, partial curve]
18 | Cc1ccc(C2=NN=C(NC(=O)C(F)(F)F)SC2)cc1 |  | inconclusive: 31.6 µM [inhibitor, partial curve]
19 | Cc1cc(C)cc(OCC(=O)N2N=C(C(F)(F)F)CC2(O)C(C)(C)C)c1 (stereo unspecified) | inactive: -3.63% | 
20 | Cc1cccc(N2C(=O)C3C4CC(C(Br)C4Br)C3C2=O)n1 (stereo unspecified) |  | inconclusive: 17.8 µM [inhibitor, partial curve]
21 | O=C(COC(=O)CCC1CCCCC1)Nc1ccc(OC(F)F)cc1 |  | inconclusive: 3.55 µM [inhibitor, full curve]
22 | Cc1cccc(NC(=S)NC(=O)c2ccc(Br)o2)c1C | inactive: -11.8% | 
23 | CN(C)S(=O)(=O)c1cccc(NC(=O)CN2C(=O)NC(CCc3ccccc3)C2=O)c1 (stereo unspecified) |  | inconclusive: 25.1 µM [inhibitor, partial curve]
24 | COc1ccc2cc3c(N)nn(C(=O)c4ccc(F)cc4Cl)c3nc2c1 |  | inconclusive: 11.2 µM [inhibitor, partial curve]

Row | Compound | activity change, negative = displacement | Potency
25 | Cc1ccc(OCc2nn3c(-c4n[nH]c5c4CCC5)nnc3s2)cc1 |  | inconclusive: 44.7 µM [inhibitor, single point]
26 | Nc1nc(C2CCCCC2)cs1 |  | inconclusive: 14.1 µM [inhibitor, partial curve]
27 | O=c1cc(-c2ccccc2)[nH]n1-c1nc2ccccc2s1 |  | inconclusive: 14.1 µM [inhibitor, partial curve]
28 | CCOC(=O)c1cc(CC)sc1NC(=O)COc1ccccc1C | inactive: 26.2% | 
29 | Cn1c(N=Nc2ccc(N3CCOCC3)cc2)[n+](C)c2ccccc21 |  | inconclusive: 35.5 µM [inhibitor, partial curve]
30 | CCN1CCN(c2ncnc3c2cnn3-c2ccc(F)cc2)CC1 | inactive: 2.68% | 
31 | Cc1ccccc1-c1cc(C(=O)Nc2sc(C(=O)OC(C)C)c(C)c2C#N)c2ccccc2n1 |  | inconclusive: 17.8 µM [inhibitor, partial curve]
32 | COc1ccc(Cl)cc1NC(=O)Cn1nnc(C(=O)NCc2cccs2)c1N |  | inconclusive: 2.82 µM [inhibitor, full curve, poor fit]
33 | COc1ccc(/C=C2/SC(=S)N(CCCC(=O)Nc3ccc(O)cc3)C2=O)cc1OC |  | inconclusive: 12.6 µM [inhibitor, partial curve]
34 | CCC1CSC(Nc2ccc(C(=O)/C=C/c3cccc(C)c3)cc2)=N1 (stereo unspecified) |  | inconclusive: 14.1 µM [inhibitor, partial curve]
35 | CC1CCCN(C(=O)COC(=O)Cc2ccc(Cl)cc2)C1 (stereo unspecified) |  | inconclusive: 50.1 µM [inhibitor, single point]
36 | Cc1oc(-c2ccccc2Cl)nc1CSCC(=O)O |  | inconclusive: 31.6 µM [inhibitor, single point]
37 | Cc1ccc(C2c3c(-c4ccccc4O)n[nH]c3C(=O)N2Cc2ccncc2)cc1 (stereo unspecified) | inactive: -3.41% | 
38 | O=C(NNc1ccc(C2CCCCC2)cc1)C(O)(c1ccccc1)c1cccs1 (stereo unspecified) |  | inconclusive: 20 µM [inhibitor, partial curve]
39 | Cc1cccc(Cc2c(C)nc3nc(SCc4cccc(F)c4)nn3c2C)c1 |  | inconclusive: 2.82 µM [inhibitor, partial curve]
40 | Cc1ccc2nc(SCC(=O)Nc3ccc4c(c3)OCCO4)[nH]c2c1 |  | inconclusive: 28.2 µM [inhibitor, partial curve]
41 | COc1ccc2cc(C(c3nnnn3C3CCCC3)N3CCc4ccccc4C3)c(=O)[nH]c2c1 (stereo unspecified) |  | inconclusive: 11.2 µM [inhibitor, partial curve]
42 | CCOC(=O)c1cc(-c2ccco2)nc2c1c(C)nn2-c1cccc(Cl)c1 | inactive: -6.86% | 
43 | Cc1ccc(Cn2ccnc2SCC(=O)NC2CCCC2)cc1 |  | inconclusive: 44.7 µM [inhibitor, partial curve]
44 | COCCNCC(=O)NC12CC3CC(CC(C3)C1)C2 |  | inconclusive: 20 µM [inhibitor, partial curve]
45 | O=C(NCc1ccccc1)c1cnc2n(c1=O)CCS2 | inactive: -9.74% | 
46 | CC1(C)CCC[C@@](C)([C@H]2CC[C@]3(C)[C@@H]2[C@H](O)CC2[C@@]4(C)CC[C@H](O)C(C)(C)[C@@H]4[C@@H](O)C[C@]23C)O1 (stereo partly specified) |  | inconclusive: 35.5 µM [inhibitor, partial curve]
47 | C#Cc1ccc2c(c1)C(=O)N(C)Cc1c(C(=O)OCCCOC(=O)c3ncn4c3CN(C)C(=O)c3cc(C#C)ccc3-4)ncn1-2 | inactive: 2.18% | 
48 | O=C(CN(c1cccc(C(F)(F)F)c1)S(=O)(=O)c1ccccc1)Nc1cccc(Cl)c1 | inactive: 38.6% | 

Row | Compound | activity change, negative = displacement | Potency
49 | CCOC(=O)c1sc(N/N=C/c2cccc(C)c2)nc1C | inactive: -14.1% | 
50 | CC(C)C1Cc2[nH]c(=O)c(C(=O)O)cc2CO1 (stereo unspecified) | inactive: 7.96% | 
51 | CC(=O)Nc1ccc(OCc2ccc3c(c2)OCO3)cc1 |  | inconclusive: 10 µM [inhibitor, partial curve]
52 | Cc1ccc(N2C(=O)CSC23C(=O)N(CC(=O)Nc2ccc(C)cc2C)c2ccccc23)cc1 (stereo unspecified) | inactive: -22.7% | 
53 | CC(C)(Oc1ccc(Br)cc1Cl)C(=O)Nc1ccon1 |  | inconclusive: 31.6 µM [inhibitor, single point]
54 | CCCCN=C1N/C(=C\c2ccco2)C(=O)N1c1ccccc1 |  | inconclusive: 25.1 µM [inhibitor, partial curve]
55 | CCOC(=O)c1ccc(NC(=O)CS(=O)(=O)c2cn(CC)c3ccccc23)cc1 |  | inconclusive: 17.8 µM [inhibitor, partial curve]
56 | CC(C)OC(=O)CSc1ncnc2c1cnn2Cc1ccccc1 |  | inconclusive: 15.8 µM [inhibitor, partial curve]
57 | CCOC(=O)c1sc(-c2ccccc2)cc1N | inactive: 0.347% | 
58 | Cc1ccc(N2CC(C(=O)Nc3nnc(SCCC4OCCO4)s3)CC2=O)cc1C (stereo unspecified) |  | inconclusive: 25.1 µM [inhibitor, partial curve]
59 | O=C(Cc1cc(=O)[nH][nH]1)N/N=C/C(Cl)=C/c1ccccc1 |  | inconclusive: 35.5 µM [inhibitor, partial curve]
60 | C/C(=N\Nc1cc(C(F)(F)F)ccc1Cl)c1ccncc1 |  | inconclusive: 56.2 µM [inhibitor, single point]
61 | CCOC(=O)C1=C(c2ccccc2)N=C2SCC(=O)N2C1c1cccc(OC)c1 (stereo unspecified) |  | inconclusive: 50.1 µM [inhibitor, single point]
62 | CCOc1cc(/C=C/c2cc(C(F)(F)F)[nH]c(=O)n2)ccc1O | inactive: 45.8% | 
63 | CC(C)C(=O)NC(c1cccs1)c1cc([N+](=O)[O-])c2cccnc2c1O (stereo unspecified) | inactive: 0.728% | 
64 | O=C1CCCc2ccccc2N1Cc1ccc(Cl)cc1 |  | inconclusive: 39.8 µM [inhibitor, partial curve]
65 | C=C1CCN(C(C)C(=O)OCc2ccc(C)cc2)S(=O)(=O)c2ccccc21 (stereo unspecified) | inactive: -2.89% | 
66 | O=C1C2CCCN2C(=S)N1Cc1ccccc1 (stereo unspecified) |  | inconclusive: 17.8 µM [inhibitor, partial curve]
67 | Fc1ccc(C2=NNC(=NCc3ccccc3)SC2)cc1F |  | inconclusive: 15.8 µM [inhibitor, partial curve]
68 | COc1cc(-c2nnc(-c3cccs3)o2)cc(OC)c1OC | inactive: -3.79% | 
69 | COC1=C(Nc2ccccc2OC)C(=O)c2ccccc2C1=O | inactive: -7% | 
70 | COc1cc(C)ccc1OCCSc1nc2ccc(NC(=O)c3cccs3)cc2s1 | inactive: 26.8% | 
71 | Cc1cc2oc(=O)cc(CSc3nc(N)cc(N)n3)c2cc1C(C)C |  | inconclusive: 44.7 µM [inhibitor, partial curve]
